Measurements from PubChem BioAssay AID463173 (ICCB-Longwood Screening Facility, Harvard Medical School, 2010).
Out of some 52,000 compounds screened, about 1,700 (3.3%) were called active. No stated cut-off is given here; in the data, active means survival mostly below about 52% (no sharp cut-off); inactive means mostly above about 56%. The list shows a part of the results.

What follows are compounds tested on Wild type (assay: growth inhibition of S. aureus wild type versus tarO mutant, primary screen, teichoic acid synthesis inhibitors, RN4220, OD600 (AID 463173)). Conditions: S. aureus RN4220 wild type/DeltatarO growth, OD600, 18 h, active compounds read low, screened at 18.75 µg/mL (by protocol).

SMILES | survival
Cc1cccc(Nc2c(-c3ccsc3)nc3nc(C)cc(C)n23)c1 | inactive: 125%
Cc1ccc(-c2nc3c4ccccc4n(CC(=O)NCc4ccc(F)cc4)c(=O)n3n2)cc1 | inactive: 146%
CN1/C(=C\C(=O)Nc2cccnc2)c2ccccc2CC1(C)C | inactive: 111%
Cc1ccc(C(=O)c2oc3ccccc3c2NC(=O)Cc2coc3ccc(C)cc23)cc1 | inactive: 88%
COc1ccc(-n2cnc3cc(C(=O)NC4CCCCCC4)ccc32)cc1 | inactive: 128%
O=C(O)c1ccc2nc(-c3cc4cc(Cl)ccc4oc3=O)[nH]c2c1 | inactive: 73%
Cc1ccc2onc(CNC(=O)NCc3ccc(Cl)cc3)c2c1 | inactive: 89%
O=C1COc2cc(S(=O)(=O)CCC(=O)NC3CCCCC3)c(Cl)cc2N1 | inactive: 91%
COc1ccc(C)cc1-n1cnc2cc(C(=O)NC3CCCCCC3)ccc21 | inactive: 87%
Cn1c(SCC(=O)Nc2nc3ccccc3s2)ncc(C(=O)Nc2ccccc2)c1=O | inactive: 75%
Cc1csc(NC(=O)c2cccnc2)n1 | inactive: 114%
CCc1nc(-c2cc(S(=O)(=O)N3CCN(c4ccccc4)CC3)ccc2OC)no1 | inactive: 85%
CCc1nn(CC(=O)NCCCN(CC)CC)c(=O)c2cc3occc3n12 | inactive: 135%
COc1cccc(CNC(=O)CN2C(=O)N(c3ccc(C)cc3C)S(=O)(=O)c3ccccc32)c1OC | inactive: 65%
O=C(CSc1nccn1-c1cccc(Cl)c1)Nc1cccc2ccccc12 | inactive: 64%
CCOc1ccc(CCNC(=O)CCCc2nnc3n(CC)c(=O)c4sccc4n23)cc1 | inactive: 98%
CCSc1ncc(Cl)c(C(=O)Nc2c(C(=O)Nc3ccccc3)oc3ccccc23)n1 | inactive: 112%
O=C(O)C(NS(=O)(=O)c1ccccc1)C(O)c1ccccc1 (stereo not given) | inactive: 110%
COc1cccc(C(=O)Nc2cccc(-c3nc4ncccn4c3C)c2)c1 | inactive: 133%
O=C(O)c1c(-c2ccccc2)oc2ccc(OCc3c(F)cccc3Cl)cc12 | inactive: 38%
Cn1c(=O)c2c(-c3ccc(Br)cc3)n(Cc3ccc(F)cc3)cc2n(C)c1=O | inactive: 39%
COc1ccc(-c2nc3cc(C)ccn3c2NC(=O)c2cccc(F)c2)cc1 | inactive: 81%
O=C(N/N=C/c1ccco1)C1c2ccccc2Oc2ccccc21 | inactive: 101%

SMILES | survival
Cc1ccc(/C=C(\C#N)C(=O)Nc2cccc(Cl)c2)o1 | inactive: 101%
COc1ccc(CCNC(=O)C2CCN(Cc3nc(-c4ccc(OC)c(OC)c4)oc3C)CC2)cc1OC | inactive: 87%
O=C(NCCn1cc(SCc2ccc(Br)cc2)c2ccccc21)c1cccs1 | inactive: 134%
O=C(Nc1ccccc1)c1cc2n(n1)C(C(F)(F)F)CC(c1ccco1)N2 (stereo not given) | inactive: 103%
N#Cc1c(/N=C/c2ccc3c(c2)OCO3)oc(-c2ccccc2)c1-c1ccccc1 | inactive: 115%
CCCC(=O)N1CCc2cc(OC)c(OC)cc2C1COc1ccc(C(=O)OC)cc1 (stereo not given) | inactive: 77%
C=CCn1c(N)nc2c1c(=O)n(C)c(=O)n2C | inactive: 104%
CCC1Oc2ccccc2N(CC(=O)NCc2cc(OC)ccc2OC)C1=O (stereo not given) | inactive: 87%
CCN(CC)C(=O)Cn1c(=O)n(CC2CCC(C(=O)NC)CC2)c(=O)c2sccc21 (stereo not given) | inactive: 118%
O=C(CSc1nc(-c2ccccc2F)nc2cc(=O)[nH]n12)Nc1cccc(C(F)(F)F)c1 | inactive: 69%
CCOc1ccccc1-c1nc(Cn2c(=O)cc(C)c3c(C)nn(-c4ccccc4)c32)c(C)o1 | inactive: 76%
Oc1ccc(Nc2ncnc3ccccc23)cc1 | inactive: 109%
O=C(CSc1ncn(-c2ccccc2)n1)c1ccc(Cl)cc1 | inactive: 96%
Cc1cc(C)cc(OCCCn2c(-c3ccc(Cl)cc3)nc3ccccc3c2=O)c1 | inactive: 63%
COc1ccc(C(CC(=O)NCc2ccc(Cl)cc2)N2Cc3ccccc3C2=O)cc1OC (stereo not given) | inactive: 113%
COC(=O)c1sc(-c2ccccc2)cc1NC(=O)Nc1ccc(F)cc1 | active: 13%
Cc1cc(C)cc(NC(=O)C2CCCN2S(=O)(=O)c2ccc3nc(-c4ccccc4)[nH]c3c2)c1 (stereo not given) | inactive: 45%
Cc1ccc(OCC(=O)Nc2ccc(S(=O)(=O)Nc3cc(C)on3)cc2)c(Br)c1 | inactive: 93%
CCNC(=S)Nc1cc(-c2ccc(Cl)cc2)[nH]n1 | inactive: 111%
COc1ccc2[nH]c(=O)c(CN(CCO)S(=O)(=O)c3ccc(Cl)c(C(F)(F)F)c3)cc2c1 | inactive: 119%
CCOC(=O)Cn1c(=O)oc2cc(S(=O)(=O)N3CCN(c4cccc(C)c4)C(C)C3)ccc21 (stereo not given) | inactive: 72%
CC(=O)Nc1ccc2nc3c(=O)n(C)c(=O)n(C)c3nc2c1C | inactive: 81%
COc1ccccc1CNC(=O)C(C)n1c(=O)cc(-c2ccccc2)c2c(C)nn(C)c21 (stereo not given) | inactive: 72%

SMILES | survival
CC(C)c1nn2c(=O)cc(COC(=O)c3cccs3)nc2s1 | inactive: 70%
Cc1[nH]n(-c2nc(-c3ccccc3)cs2)c(=O)c1N=Nc1ccc(O)cc1 | inactive: 104%
Cc1nc2cccnc2n1-c1cccc(C(=O)NCCN(C)C)c1 | inactive: 64%
CCSc1nsc(NC(=O)Nc2cccc(OC)c2)n1 | inactive: 95%
CCc1ccc(CNC(=O)c2cnc3sc(N4CCOCC4)nn3c2=O)cc1 | inactive: 74%
N#Cc1nc(-c2ccc(COc3ccccc3)o2)oc1N1CCN(c2ccccc2)CC1 | inactive: 88%
O=C1CCSC2(C(=O)N(Cc3ccc(F)cc3)c3ccccc32)N1c1ccc(Cl)cc1 (stereo not given) | inactive: 70%
COc1ccc(Cl)cc1NC(=O)N1CCN(Cc2cc(=O)n3nc(-c4ccccc4)sc3n2)CC1 | inactive: 71%
O=C(Nc1cccn(Cc2ccccc2)c1=O)NC1CCCCC1 | inactive: 121%
Cc1cccc(OC(=O)c2cc(-c3ccc(C)c(C)c3)on2)c1 | active: -7%
CCOC(=O)c1cnn(-c2ccc(C(=O)Nc3ccc(C(C)=O)cc3)cc2)c1N | inactive: 81%
NC1=NC(c2cccc(Cl)c2)n2c(nc3ccccc32)N1 (stereo not given) | inactive: 97%
CCCS(=O)(=O)Nc1cccc(-c2cn3ccc(C)cc3n2)c1 | inactive: 81%
CCOc1ccc2c(c1)c(=O)c(S(=O)(=O)c1ccc(F)cc1)cn2CC(=O)Nc1ccccc1C | inactive: 90%
COCCN(Cc1ccco1)C(=O)c1cc2c(=O)[nH]c3ccc(C)cc3c2s1 | inactive: 76%
CCOC(=O)c1c(S(=O)(=O)N2CCCC(C(=O)NCc3cccc(C)c3)C2)c(C)n(C)c1C (stereo not given) | inactive: 77%
Cc1ccc(-c2csc(NC3OC(=O)c4c#cccc43)n2)cc1 (stereo not given) | inactive: 98%
COc1cc2cc(CNc3ccccc3)c(=O)n(CC(=O)Nc3ccc(C)c(Cl)c3)c2cc1OC | inactive: 73%
Cc1ccc(-c2noc(-c3ccc(N4CCN(C)CC4)c([N+](=O)[O-])c3)n2)cc1 | inactive: 85%
O=C(COc1ccccc1)NCC(c1ccc(Cl)cc1)N1CCOCC1 (stereo not given) | inactive: 77%
Cc1ccc(NC(=O)c2oc3ccc4c(c3c2C)C(=O)CC(C)(C)O4)c(C)c1 | inactive: 87%
CCCCNC(=O)C1CCN(Cc2cccc(OC)c2O)CC1 | inactive: 132%
COc1ccc(C)cc1NS(=O)(=O)c1c(C(=O)N2CCC(C)CC2)c(C)n(C)c1C | inactive: 85%

SMILES | survival
COC(=O)c1ccc(NC(=O)CCCC(=O)OCC(=O)c2ccc(Cl)cc2)cc1 | inactive: 87%
CCCCNC(=O)c1c(N)no[n+]1[O-] | inactive: 107%
CCOc1c(Br)cc(C2CC(=O)Nc3cc4c(cc32)OCO4)cc1OC (stereo not given) | inactive: 142%
O=C(CSc1n[nH]c(-c2ccc(F)cc2)n1)NCc1ccccc1Cl | inactive: 80%
COc1ccc(C2C=C(c3ccc(Cl)cc3)Nc3nc(-c4ccc(Cl)cc4)nn32)cc1 (stereo not given) | inactive: 88%
COc1ccc(CCNC(=O)c2cccc(Nc3nc4ccccc4nc3-n3nc(C)cc3C)c2)cc1OC | inactive: 120%
CC(=O)N1CCc2cc(Br)cc(S(=O)(=O)N3CCC(C(=O)Nc4ccc(C(C)C)cc4)CC3)c21 | inactive: 137%
COc1ccc(C(=O)CC2(O)C(=O)N(Cc3cccc(C(F)(F)F)c3)c3ccccc32)cc1 (stereo not given) | inactive: 32%
Cn1ncc2c(N3CCN(c4ccccc4F)CC3)ncnc21 | inactive: 71%
CCOc1ccc(/C=C/c2nc(C#N)c(NC(C)c3ccccc3)o2)cc1 (stereo not given) | inactive: 79%
COc1ccc(C)cc1NC(=O)Nc1cccc(OCc2cc(=O)n3ccc(C)cc3n2)c1 | inactive: 73%
Cc1ccccc1OCC(=O)NCC(c1ccc(Cl)cc1)N1CCCCC1 (stereo not given) | inactive: 78%
CCCCc1ccc(NC(=O)c2ccc3c(c2)CCN3S(=O)(=O)CC)cc1 | inactive: 80%
COc1cccc(C(=O)N2c3ncnn3C3(CCCCC3)[C@@H]3CCCC[C@@H]32)c1 | inactive: 81%
COc1ccc(N2CCN(S(=O)(=O)c3ccc(-c4ccno4)cc3OC)CC2)cc1 | active: 1%
CCc1cccc(C)c1NC(=O)CN1C(=O)C2(SCC(=O)N2c2cccc(F)c2)c2ccccc21 (stereo not given) | inactive: 136%
CC(C)(C)NC(=O)CSc1nnc(Cc2ccc3c(c2)OCO3)n1C1CCCCC1 | inactive: 104%
CN(Cc1ccccc1)S(=O)(=O)c1ccc(NC(=O)c2cc(=O)c3ccccc3o2)cc1 | inactive: 79%
O=C(Nc1cccc(Cl)c1N1CCOCC1)c1ccco1 | inactive: 101%
Cc1ccccc1NC(=O)Cn1c(=O)n(CCc2ccccc2)c(=O)c2ccccc21 | inactive: 99%
COc1ccc(C(=O)COC(=O)c2cc(-c3cccs3)nc3ccccc23)cc1 | inactive: 66%
